In patent US20100004180A1, “Agents for the Detection and Modulation of B-Cells and Antibodies” (priority 2008, published 2010):
Values belong to the compound of their own block, whether it stands above or below them. Where no end group is shown, it is not given here.

Assays:
natural IgM = test: ELISA: inhibition of natural IgM (Nab) binding to W-determinants by indole compounds; details: in vitro, compound added into the incubation medium
[1] = system: spleen and peritoneal B cells; test: ELISPOT of B cells on phage-displayed W determinants; type: cell-based, Balb/c mice
Description: ELISPOT. Spleen and peritoneal washout were prepared using 10-12 wk-old Balb/c mice and B cells were isolated using the StemCell Technologies protocol and reagents. Isolated B cells were suspended in 10% FBS/DMEM and incubated overnight in a 96-well polypropylene plate containing indolylpropionic acid (IPA) solution at 0.625 mM −2.5 mM at 37° C. in the presence of 5% CO2. The cells were transferred into a phage- or anti-IgM antibody-coated ELISPOT plate (Millipore MltiScreenHTS), at 200-15000 cells per well, and incubated overnight at 37° C. in the presence of 5% CO2. Coating phage and goat anti-mouse IgM antibody (positive control) were used at 10^11 pfu/ml and 10 μg/ml, respectively. Phage clones displaying W determinants and control peptids lacking Trp residues were used. Coating was allowed to proceed overnight with gentle rocking. Next day, plates were blocked, washed and seeded with cells. LPS-stimulated spleen and peritoneal B cells were prepared by incubating cells in 10% FBS/DMEM containing 10 μg/ml LPS for 24, 48 and 72 hours (10^6 cells/ml). Stimulated cells were transferred into ELISPOT plates (200-15000 cells/wells). ELISPOT plates were processed as follows. After discarding the well media, plate were washed once with H2O and then 6 times with 0.05% Tween-20 in TBS and incubated with biotin-labeled anti-mouse IgM antibody in 1% BSA/TBS. […]

MRL/1pr mice = test: In vivo experiments: IPA in drinking water of autoimmune mice
Description: In vivo experiments. Female LRL/1rp mice were receiving either normal water or 20 mM IPA (pH ˜7) starting from the age of 5 weeks. Mice were killed at the age of 22 weeks and their lymph nodes, spleens and kidneys were weighed and subjected to histological analysis.

IgM58 = test: ELISA IgM-binding competition, polyspecific IgM58; parameters: species or system Balb/c mice; details: for inhibition of IgM58 binding to T7-RLTPR: IgM 2 μg/ml, TBS-BT, FIG. 2B
IgM60 = test: ELISA IgM-binding competition, polyspecific IgM60; parameters: species or system Balb/c mice; details: for inhibition of IgM60 binding to T7-DLLDR by synthetic peptides: IgM 2 μg/ml, TBS-BT, FIG. 2C
IgM41 = test: ELISA IgM-binding competition, polyspecific IgM41; parameters: species or system Balb/c mice; details: IgM 2 μg/ml; for inhibition of IgM41 binding to T7-PEGWT: TBS/1% BSA/0.05% Tween-20, FIG. 2A
[2] = peptide devoid of TP determinant, FIG. 2E

- inhibition of IgM binding to W-determinants (natural IgM): inhibition
Compound: O=C(O)CC(NC(=O)Cc1c[nH]c2ccccc12)C(=O)O (racemic) [N-(indolylacetyl)-DL-Asp]

Compound: O=C(O)CCc1c[nH]c2ccccc12 [IPA, indole-3-propionic acid]
- B-cell secretion of Nabs in ELISPOT [1]: suppresses
- reduction of the number of cells binding to W determinants ([1]; 2.5 mM IPA in the medium): 70-80%
- development of autoimmunity (MRL/1pr mice; 20 mM IPA instead of water): prevents
- development of lymphoproliferation (MRL/1pr mice; IPA added to drinking water): prevents
- appearance of IgG antibodies reacting with W determinants (MRL/1pr mice; adult mice, IPA in drinking water): prevents

- inhibition of IgM binding to W-determinants (natural IgM): inhibition
Compound: C[C@H](NC(=O)Cc1c[nH]c2ccccc12)C(=O)O [N-(indolylacetyl)-L-Ala]

- inhibition of IgM binding to W-determinants (natural IgM): inhibition
Compound: CC[C@H](C)[C@H](NC(=O)Cc1c[nH]c2ccccc12)C(=O)O [N-(indolylacetyl)-L-Ile]

- inhibition of IgM binding to W-determinants (natural IgM): inhibited
Compound: CC(=O)N[C@@H](Cc1c[nH]c2ccccc12)C(=O)O [N-acetyl-tryptophan]

- inhibition of IgM binding to W-determinants (natural IgM; listed as trans-3-indoleacrylic acid): at least as effectively as IPA
Compound: O=C(O)C=Cc1c[nH]c2ccccc12 [indole-3-acrylic acid]

Compound: N[C@@H](Cc1c[nH]c2ccccc12)C(=O)O [tryptophan, reference compound]
- inhibition of IgM binding to W-determinants (natural IgM): no effect

- inhibition of IgM58 binding to T7-RLTPR (IgM58): not
- reduction of IgM60 binding to DNP(10)-BSA (IgM60; FIG. 2F): significantly reduced
- reduction of IgM60 binding to PC(15)-BSA (IgM60; FIG. 2F): significantly reduced
- reduction of IgM60 binding to TNP(14)-BSA (IgM60; FIG. 2F): significantly reduced
- inhibition of IgM60 binding to T7-DLLDR by synthetic peptides (IgM60): significantly inhibited
- inhibition of IgM60 binding to peptide PERVF (IgM60; peptide devoid of L-determinant, FIG. 2F): completely inhibited
- inhibition of IgM41 binding to T7-PEGWT (IgM41): No inhibition
Compound: Ac-DGA-DLLDR

- inhibition of IgM60 binding to T7-DLLDR by synthetic peptides (IgM60): weakly inhibited
Compound: Ac-DLLDR [synthetic peptide with L-determinant, without DGA spacer]

- inhibition of IgM58 binding to T7-RLTPR (IgM58): not
- inhibition of IgM60 binding to T7-DLLDR by synthetic peptides (IgM60): ineffective
- inhibition of IgM41 binding to Flu(6)-BSA (IgM41; TBS-BT): no effect
- inhibition of IgM41 binding to NIP(31)-BSA (IgM41; TBS-BT): no effect
- inhibition of IgM41 binding to NP(24)-BSA (IgM41; TBS-BT): weakly inhibited
- inhibition of IgM41 binding to T7-PEGWT (IgM41): completely inhibited
Compound: Ac-PEGWN [synthetic peptide with W-determinant, homologous to T7-PEGWT, reacts with IgM41]

- inhibition of IgM58 binding to TNP(14)-BSA (IgM58; FIG. 2E): moderately
- inhibition of IgM58 binding to myosin (IgM58; FIG. 2E): completely inhibited
- inhibition of IgM58 binding to thyroglobulin (IgM58; FIG. 2E): completely inhibited
- inhibition of IgM58 binding to T7-RLTPR (IgM58): inhibited
- inhibition of IgM58 binding to T7-ARTRL (IgM58; [2]): completely inhibited
- inhibition of IgM58 binding to T7-RYIGK (IgM58; [2]): completely inhibited
- inhibition of IgM60 binding to T7-DLLDR by synthetic peptides (IgM60): ineffective
- inhibition of IgM41 binding to T7-PEGWT (IgM41): No inhibition
Compound: Ac-RLTPR [synthetic peptide with TP-determinant, reacts with IgM58]
